PubChem BioAssay AID1347165 (National Center for Advancing Translational Sciences (NCATS), 2019)
In all, about 220,000 compounds went through this assay and about 5,700 (2.6%) were called active. The shares of active, inactive and inconclusive entries below differ from those in the screen. Calls follow the shape of the dose curve; as a rule, active = well fitted inhibition curve with a large enough effect; inconclusive = small, poorly fitted or top-dose-only effect; inactive = no such curve, though single readings can be large or run the other way. Potencies beside an inconclusive call are fits to weak or partial responses and may not hold up.

Molecular target: Lysine-specific demethylase 5B (Homo sapiens) (UniProt Q9UGL1)
Chain of UniProt Q9UGL1 (Q9UGL1 whole entry, looked up): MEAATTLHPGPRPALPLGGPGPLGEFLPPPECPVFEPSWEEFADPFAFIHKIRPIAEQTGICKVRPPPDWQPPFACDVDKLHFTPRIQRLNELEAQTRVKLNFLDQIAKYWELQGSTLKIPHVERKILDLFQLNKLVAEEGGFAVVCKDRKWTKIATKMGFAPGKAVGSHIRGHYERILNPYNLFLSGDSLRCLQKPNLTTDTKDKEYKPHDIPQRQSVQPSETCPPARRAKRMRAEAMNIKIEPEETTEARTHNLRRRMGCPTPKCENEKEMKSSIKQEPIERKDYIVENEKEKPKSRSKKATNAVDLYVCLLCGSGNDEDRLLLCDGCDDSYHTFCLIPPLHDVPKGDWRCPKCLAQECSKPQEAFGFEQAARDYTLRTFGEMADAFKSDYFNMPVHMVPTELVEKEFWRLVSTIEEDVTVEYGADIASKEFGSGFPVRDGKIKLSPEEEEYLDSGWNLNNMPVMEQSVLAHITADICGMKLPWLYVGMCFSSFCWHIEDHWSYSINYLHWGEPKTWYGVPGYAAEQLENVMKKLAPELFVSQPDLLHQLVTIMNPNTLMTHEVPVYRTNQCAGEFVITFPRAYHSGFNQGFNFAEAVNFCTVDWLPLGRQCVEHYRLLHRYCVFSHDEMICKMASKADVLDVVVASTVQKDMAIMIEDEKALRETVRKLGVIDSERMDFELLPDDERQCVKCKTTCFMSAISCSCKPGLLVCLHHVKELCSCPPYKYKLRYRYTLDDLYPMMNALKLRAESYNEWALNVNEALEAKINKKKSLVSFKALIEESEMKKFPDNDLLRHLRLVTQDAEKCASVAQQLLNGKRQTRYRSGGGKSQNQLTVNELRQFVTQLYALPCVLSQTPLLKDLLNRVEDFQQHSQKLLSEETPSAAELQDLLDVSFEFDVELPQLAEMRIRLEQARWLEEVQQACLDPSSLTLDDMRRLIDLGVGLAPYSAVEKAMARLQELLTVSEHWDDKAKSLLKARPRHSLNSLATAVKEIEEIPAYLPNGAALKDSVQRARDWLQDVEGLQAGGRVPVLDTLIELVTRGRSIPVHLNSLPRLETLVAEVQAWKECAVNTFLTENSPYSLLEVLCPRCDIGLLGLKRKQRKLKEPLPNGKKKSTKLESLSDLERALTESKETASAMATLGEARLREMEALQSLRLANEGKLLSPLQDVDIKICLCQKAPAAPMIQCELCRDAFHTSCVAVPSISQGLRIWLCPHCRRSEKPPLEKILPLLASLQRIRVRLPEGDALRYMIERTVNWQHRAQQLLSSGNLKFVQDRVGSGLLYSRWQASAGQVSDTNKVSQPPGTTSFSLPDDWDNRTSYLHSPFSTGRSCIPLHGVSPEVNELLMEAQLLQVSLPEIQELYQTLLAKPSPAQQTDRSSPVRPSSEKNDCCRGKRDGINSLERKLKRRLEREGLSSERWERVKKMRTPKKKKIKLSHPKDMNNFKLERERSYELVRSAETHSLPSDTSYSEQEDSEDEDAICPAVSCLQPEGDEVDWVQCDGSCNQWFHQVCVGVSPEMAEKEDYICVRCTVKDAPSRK
Experiment: Primary screen for KDM5B Histone Demethylases FDH-coupled qHTS; also: nearly all actives have a fitted effect of over 70% in size; as to activity change, negative = inhibition: 0% is about no effect
Settings: FDH-coupled NADH fluorescence (FDH is formaldehyde dehydrogenase); activity change, negative = inhibition: at 57.7 µM (top of the series) unless noted
Outline: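 Here, H3K4me3 peptide (12.5 µM in substrate mix) is demethylated by KDM5BΔAP, 200 nM final, after 10 min compound exposure. Formaldehyde product is coupled through FDH (0.25 U/mL in mix) to NADH fluorescence; 30-min ΔRFU feeds dose-response curves.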
Potency is read from the fitted curve at half-maximal effect; tags tell the direction and shape of the fitted curve.

| SMILES | Potency | activity change, negative = inhibition |
| --- | --- | --- |
| Clc1cccc(Cl)c1C=Nc1ccc(-c2ccc(N=Cc3c(Cl)cccc3Cl)cc2)cc1 | inconclusive: 25.1 µM [inhibitor, single point] |  |
| O=C1Nc2ccc(-c3ccccc3)cc2C(=O)N2CCN(C(=O)c3cccs3)C[C@H]12 | inconclusive: 28.2 µM [inhibitor, partial curve, poor fit] |  |
| COc1ccc(CC(=O)NC2CCN(c3cc(-c4ccc(F)cc4)[nH]n3)C2)cc1OC (stereo not given) | inconclusive: 17.8 µM [inhibitor, partial curve, poor fit] |  |
| Nc1c(Cl)cccc1C(=O)OCc1nc(N)c2ccccc2n1 | inconclusive: 12.6 µM [inhibitor, partial curve, poor fit] |  |
| Cc1cc(C(=O)CSc2nnnn2C2CC2)c(C)n1Cc1cccs1 | inconclusive: 39.8 µM [inhibitor, single point] |  |
| O=C(NCC(F)(F)F)c1cccc(NC(=O)c2cccc3cccnc23)c1 |  | inactive: -0.571% |
| COc1cc(OC)c(C(=O)Nc2nc(C)c(C)s2)cc1OC |  | inactive: 6% |
| COc1ccc(-c2cn3cccnc3n2)cc1NC(=O)Nc1ccc(Cl)cc1 | inconclusive: 39.8 µM [inhibitor, single point] |  |
| COCCN1Cc2nc(Nc3ccccc3F)ccc2OCC1=O |  | inactive: -23.8% [at 86.2 µM] |
| Cc1cc(C)cc(NC(=O)c2cc3n(n2)CC(c2ccc(Cl)cc2)OC3)c1 (stereo not given) | active: 25.1 µM |  |
| O=C(Nc1ccc2c(c1)N(C1CCCC1)C(=O)c1ccccc1S2)c1ccccc1F | inconclusive: 7.94 µM [inhibitor, partial curve, poor fit] |  |
| Nc1nc(Cl)ccc1[N+](=O)[O-] |  | inactive: -24.5% |
| Nn1c(SC(C(=O)N2CCOCC2)c2ccccc2)nnc1-c1ccccc1F (stereo not given) |  | inactive: -22.4% |
| Cc1ccccc1NC(=O)COc1ncnc2ccc(Br)cc12 |  | inactive: 7.1% |
| COc1cccc(CC(=O)NC2CCN(c3cc(-c4ccc(F)cc4)[nH]n3)C2)c1 (stereo not given) | active: 7.94 µM |  |
| Cc1cccc(-n2ncc3c(Nc4ccc(C)c(Cl)c4)ncnc32)c1 | inconclusive: 39.8 µM [inhibitor, partial curve, poor fit] |  |
| CCc1ncc2c(N3CC4CCC(C3)N4CC(F)(F)F)nc3ccccc3n12 | active: 70.8 µM |  |
| Cc1ccccc1CNC(=O)CN1C(=O)C2CCCCN2c2ccc(C(=O)N3CCCC3)cc21 (stereo not given) | inconclusive: 17.8 µM [inhibitor, partial curve, poor fit] |  |
| O=c1cc(O)c2sc(Nc3ccc(Cl)c(F)c3)nc2[nH]1 | inconclusive: 22.4 µM [inhibitor, partial curve, poor fit] |  |
| COc1ccc2[nH]c(CN3CCC(CCC(=O)NCc4ccc(F)cc4)CC3)c(C)c2c1 | inconclusive: 12.6 µM [inhibitor, partial curve] |  |
